Measurements from paper PMC4336329 (PLoS ONE, 2015).
The campaign covered roughly 310,000 compounds. About 14,000 (4.5%) showed an effect of 50% or more. The effect is printed as a negative number. The list shows a part of the results.

biological target: human ether-à-go-go-related gene (hERG) potassium channel (human, UniProt Q12809); assay: primary screen, population patch clamp on CHO cells stably expressing hERG
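Note: peak tail current of the secondary pulse compared with the same well before compound.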

Chain of human ether-à-go-go-related gene (hERG) potassium channel (Q12809 whole entry, looked up): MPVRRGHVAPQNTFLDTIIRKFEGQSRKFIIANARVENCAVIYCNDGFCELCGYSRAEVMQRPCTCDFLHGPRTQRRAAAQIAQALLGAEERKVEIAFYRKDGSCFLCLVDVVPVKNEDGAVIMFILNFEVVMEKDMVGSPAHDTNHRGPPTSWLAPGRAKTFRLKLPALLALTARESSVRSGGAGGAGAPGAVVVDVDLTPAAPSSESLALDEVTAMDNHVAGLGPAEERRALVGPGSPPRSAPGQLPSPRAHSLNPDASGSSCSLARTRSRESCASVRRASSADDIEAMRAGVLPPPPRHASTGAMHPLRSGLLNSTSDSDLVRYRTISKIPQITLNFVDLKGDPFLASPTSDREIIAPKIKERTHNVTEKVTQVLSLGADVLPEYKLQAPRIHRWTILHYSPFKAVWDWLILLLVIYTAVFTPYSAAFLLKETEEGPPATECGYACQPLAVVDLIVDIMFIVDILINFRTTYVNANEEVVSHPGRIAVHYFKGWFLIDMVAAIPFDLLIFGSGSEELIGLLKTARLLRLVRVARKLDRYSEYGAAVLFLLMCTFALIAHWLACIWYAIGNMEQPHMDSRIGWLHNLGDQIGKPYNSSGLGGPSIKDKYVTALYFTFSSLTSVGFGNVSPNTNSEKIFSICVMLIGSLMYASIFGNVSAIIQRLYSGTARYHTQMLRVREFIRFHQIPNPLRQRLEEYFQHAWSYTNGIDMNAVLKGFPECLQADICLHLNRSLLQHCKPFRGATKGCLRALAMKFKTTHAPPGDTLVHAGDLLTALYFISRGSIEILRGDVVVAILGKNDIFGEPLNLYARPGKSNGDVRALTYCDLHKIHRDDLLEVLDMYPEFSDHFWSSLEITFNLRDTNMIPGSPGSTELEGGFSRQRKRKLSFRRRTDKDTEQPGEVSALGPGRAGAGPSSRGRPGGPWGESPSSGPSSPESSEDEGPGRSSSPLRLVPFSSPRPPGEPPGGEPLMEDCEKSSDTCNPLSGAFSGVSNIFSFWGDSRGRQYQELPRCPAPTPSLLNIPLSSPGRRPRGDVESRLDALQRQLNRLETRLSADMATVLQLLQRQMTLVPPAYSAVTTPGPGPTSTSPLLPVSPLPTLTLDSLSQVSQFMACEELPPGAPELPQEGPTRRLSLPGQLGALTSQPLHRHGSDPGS

SMILES | hERG current change (%, negative = inhibition) at 10uM
COC(=O)c1ccc(C(=O)OC)c(NC(=S)N2CCC(C)CC2)c1 | 5.56%
CCn1c(=O)c2cc(C(=O)N3CCN(C)CC3)sc2c2ccccc21 | -7.87%
Clc1ccc(N/N=C/c2cccnc2)cc1 | -0.519%
COc1ccc(C(=O)O)cc1S(=O)(=O)Nc1ccc(C)cc1 | 23.1%
Clc1ccc2c(NCc3ccccn3)ncnc2c1 | -5.19%
C1COC(NC(C2CC2)C2CC2)=N1.O=C(O)/C=C/C(=O)O | 5.66%
CCn1nc(C)c(NS(=O)(=O)c2ccc(C)cc2)c1C | -0.126%
O=C(Cc1ccc(F)cc1)Nc1c(C(=O)N2CCN(c3ncccn3)CC2)oc2ccccc12 | -56%
COC(=O)c1ccc(SC)cn1 | 14.8%
COc1ccc(C(CNC(=O)Cc2ccc(-c3ccccc3)cc2)N(C)C)cc1 (centres unmarked) | -29.8%
CCc1ccccc1NC(=O)CSc1nc(-c2ccccc2)nn1C(=O)c1cccc([N+](=O)[O-])c1 | -0.129%
Cc1ccc(-n2c(=O)c3sccc3n(CC(=O)NC3CCCC3)c2=O)cc1 | 16%
COC1=CC(=Cc2c(N)n3nc(CC(=O)N4CCCCC4)sc3nc2=O)C=C(OC)C1=O | 9.27%
C=CCNC(=O)c1ccncc1 | 6.85%
CCC(=O)Nc1ccccc1C(=O)NC1CCCCC1 | -1.67%
O=C1NCC(COCC2CC=CCC2)O1 (centres unmarked) | -8.02%
COc1ccc(-c2csc3ncnc(Nc4ccc(O)cc4)c23)cc1 | 11.2%
O=C(Cn1cc(C(F)(F)F)ccc1=O)Nc1cc(S(=O)(=O)N2CCOCC2)ccc1Cl | -16%
CCOC(=O)C1=C(C)NC(=O)NC1c1ccc(OC)c(CN2CCOCC2)c1 (centres unmarked) | 0.39%
COCCN(CCOC)c1nc(-c2ccccc2)nc2ccccc12 | -68.2%
CN1CCN(Cc2nc(Cc3ccccc3)no2)CC1c1ccccc1 (centres unmarked) | -9.54%
COc1ccc(NC(=O)C2CCCN2S(=O)(=O)c2ccc3c(c2)CC(C)N3C(C)=O)cc1OC (centres unmarked) | 9.19%
O=C(C1CCCC1)N1CCN(S(=O)(=O)c2cccc(Cl)c2Cl)CC1 | 1.24%

SMILES | hERG current change (%, negative = inhibition) at 10uM
CCOc1ccc(C(c2nnnn2C(C)(C)C)N2CCN(C(=O)c3ccco3)CC2)cc1 (centres unmarked) | -69.3%
O=C(NCCOc1ccccc1F)c1cc(F)c(F)cc1Cl | -35%
CC(C)NC(=O)c1ccccc1NC(=O)CCc1ccccc1 | -0.576%
CC(C)CCNC(=O)NC(=O)CSc1ccc(S(=O)(=O)N2CCOCC2)cn1 | -1.25%
COC(=O)CSc1nnc(CNc2ccc(Cl)cc2)n1-c1ccccc1 | -33.3%
CN(C)CCNC(=O)C(=O)Nc1ccc2c(c1)N(S(=O)(=O)c1cccs1)CCC2 | -2.98%
Cc1ccc(NC(=O)O/N=C/c2ccc(Br)cc2)cc1 | 1.12%
COc1cc2c(cc1OC)CN(C(=O)CCc1c[nH]c3ccccc13)[C@H](C(=O)O)C2 | 18.8%
CCCCCC/C(=N/O)c1ccccn1 | -8.5%
Cn1c(Cc2cccs2)nnc1SCC(=O)Nc1ccc(C(N)=O)cc1 | 11%
CC1CN(c2nc3c(c(=O)n(Cc4ccc(Cl)c(Cl)c4)c(=O)n3C)n2C)CC(C)O1 (centres unmarked) | -35.7%
CC(C)C(OC(=O)c1cccs1)C(=O)NCc1ccc2c(c1)OCO2 (centres unmarked) | 23.9%
O=C(Nc1nccs1)c1ccc(F)c(S(=O)(=O)N2CCOCC2)c1 | -18.8%
Cc1[nH]c2ccccc2c1/C=N/Nc1nc(Nc2ccccc2)nc(N2CCOCC2)n1 | -26.3%
CCOc1c(Nc2ccccc2O)c(=O)c1=O | 20.7%
COc1ccc(NS(=O)(=O)c2ccc3oc4ccccc4c3c2)cn1 | 17.4%
Brc1ccc(N=C/C=C/C=C/Nc2ccc(Br)cc2)cc1.Cl | -7.95%
O=C(NCNC(=O)NC1C(=O)NC(=O)N1CO)NC1C(=O)NC(=O)N1CO (centres unmarked) | -1.09%
CCN(CC)C(=O)C1CCCN(c2ccc([N+](=O)[O-])cc2/C=N/NC(=O)c2ccccc2)C1 (centres unmarked) | -45.4%
COc1ccc(C(=O)Nc2nc3ccccc3c(=O)[nH]2)cc1 | 2.8%
CCOc1ccc(N(CC(=O)N2CCOCC2)S(=O)(=O)c2ccc(Cl)cc2)cc1 | -36.6%
CCOC(=O)c1ccc(COC(=O)CNC(=O)CNC(=O)c2ccc(OC)cc2)o1 | 9.35%
COc1ccc(N2CCc3c(C)nc4c(OC)cccc4c32)cc1 | -73.5%

SMILES | hERG current change (%, negative = inhibition) at 10uM
COc1ccc(N=Cc2c(C)[nH][nH]c2=O)cc1 | 7.25%
CCCCN(C(=O)CSc1c(C)c(C)cc(C)c1C)c1c(N)n(CCC)c(=O)[nH]c1=O | 13%
CC1=C(C(=O)Nc2ccccc2F)C(c2cccs2)C2=C(CCCC2=O)N1 (centres unmarked) | 6.93%
O=C(NCCNC1CCCCC1)c1ccco1 | 8.45%
CC12CCC3C(CC=C4CC(O)CCC43C)C1C/C(=C\c1cccc(F)c1)C2=O (centres unmarked) | 7.89%
COc1ccccc1OCC(=O)NCC1CCCN(C(=O)c2ccccc2SC)C1 (centres unmarked) | 0.932%
O=C(N/N=C\c1cc(Br)c(Br)o1)c1cncc(Br)c1 | 7.62%
Cc1ccc(S(=O)(=O)NCCC(=O)NCC(c2ccco2)N2CCCCC2)cc1C (centres unmarked) | -45.3%
Cc1c(/C=N\NC(=O)c2ccc(F)cc2)cnn1C | 10.9%
CCOC(=O)Cc1csc(NC(=O)COc2ccc3ccccc3c2)n1 | -30.5%
Cn1nc(C(=O)N2CCN(c3ccccc3)CC2)c2c1-c1ccccc1S(=O)(=O)C2 | -40.9%
COc1ccc(CNC(=O)CCS(=O)(=O)c2ccc3c(c2)oc(=O)n3C)cc1 | 5.82%
CCOC(=O)C1CCN(CCCSc2ccc(Cl)cc2)CC1.Cl | -72.7%
O=C(O)CC1(c2ccc(F)cc2)C2CC3CC(C2)CC1C3 (centres unmarked) | 22.3%
CCc1c(C)c2ccc(OCC(=O)NCC3CCC(C(=O)O)CC3)c(C)c2oc1=O (centres unmarked) | 18%
CCCOc1ccc(N2C(=O)CC(NCC#N)C2=O)cc1 (centres unmarked) | 2.57%
Cc1csc2c(N3CCN(C(=S)Nc4ccc(F)cc4F)CC3)ncnc12 | -26.8%
COc1ccc(CNc2cccc3[nH]c(C(F)(F)F)nc23)cc1OC.Cl | 8.88%
COc1ccccc1CN1C(=O)[C@H]2Cc3c([nH]c4ccccc34)C(C)(C)N2C1=O | 4.05%
COc1ccc(OC)c(NC(=O)c2ccc3nc(-c4ccccc4)c(-c4ccccc4)nc3c2)c1 | 32.6%
CCCC1CCC(C(=O)Nn2c(C)nc3ccccc3c2=O)CC1 (centres unmarked) | -24.1%
CC1CCc2nc(NC(=O)Cc3cccs3)sc2C1 (centres unmarked) | 6.69%
CCN(CC)S(=O)(=O)c1ccc(Cl)c(C(=O)NC2CCCC2)c1 | -15.1%

SMILES | hERG current change (%, negative = inhibition) at 10uM
Cc1nnc2c(NC(C)C)nc3ccccc3n12 | -26.8%
Cn1c(SCc2ccccc2)nnc1-c1ccncc1 | -11.2%
COc1ccc(-n2c(=O)c3c(C)c(C)sc3n(Cc3ccc(F)cc3)c2=O)c(OC)c1 | 0.784%
Cc1cc(/C=C2\SC(=S)NC2=O)c(C)n1-c1ccc(O)cc1 | 12.8%
COc1ccc(-c2ccc3c(c2)S(=O)(=O)c2cccc(C(=O)NCc4ccccc4Cl)c2C3=O)cc1OC | 15.3%
COc1cc(/C=N\Nc2nc(-c3ccc(C)cc3)c(NC(C)=O)s2)ccc1O | -8.59%
COc1ccc(CNC(=O)CN(Cc2ccco2)C(=O)CNS(=O)(=O)c2ccc(F)cc2)cc1 | -34.1%
O=C(c1ccc(F)cc1)C(Cc1ccccc1)N1CCCCC1 (centres unmarked) | 1.82%
Cc1c(C#N)c2ccccc2n1C | 15.3%
CCOc1ccc(NC(=O)COC(=O)c2cc(=O)c3ccccc3o2)cc1 | 15.2%
CCc1nc(SCC(=O)NNC(=O)c2ccc(C)cc2)c2ccccc2n1 | 4.89%
CCCCCc1ccc(-c2ccc(/C=C/C(N)=O)cc2)nc1 | 15.7%
O=C(Cc1cccs1)Nc1nncs1 | 7.33%
COc1ccc(NS(=O)(=O)c2cccc(C(=O)NNC(=O)CN3C(=O)NC(C)(C)C3=O)c2)cc1 | 12.5%
O=S(=O)(Nc1ccc2c(c1)OCCO2)c1ccc(F)c(F)c1 | -21%
COc1cc(C(=O)Nc2nc3ccc(S(C)(=O)=O)cc3s2)cc(OC)c1C | 15.9%
O=C(O)c1ccc(CNC(=O)C2CCCN2C(=O)OCc2ccccc2)cc1 (centres unmarked) | 7.03%
Cc1ccc(OCCCCCN2CCOCC2)cc1 | 4.39%
O=C(c1ccco1)N1CCN(C(=O)c2snc3ccc(Cl)cc23)CC1 | -30.2%
Cc1cc(Br)c(NC(=O)CN2CC=C(c3ccccc3)CC2)c(Br)c1 | 15.3%
